The antibiotic and cytotoxicity screens of Wong et al. (2023)
Some of the results follow.

tested on: S. aureus RN4220; experiment: growth inhibition call (relative growth <= 0.2); conditions: 50 µM

Growth inhibition call, inactive:
C[C@H](CO)N1C[C@H](C)[C@@H](CN(C)CC2CCCCC2)Oc2ccc(NS(=O)(=O)c3cn(C)cn3)cc2C1=O
CC(C)NC(=O)Nc1ccc2c(c1)C(=O)N([C@H](C)CO)C[C@H](C)[C@H](CN(C)S(=O)(=O)c1cccs1)O2
C[C@H]1CCCCO[C@@H](CN(C)Cc2ccc(C(F)(F)F)cc2)[C@@H](C)CN([C@@H](C)CO)C(=O)c2cc(NC(=O)Nc3cccc4ccccc34)ccc2O1
CCCN(C)C[C@@H]1Oc2cc(C#Cc3ccc(OC)cc3)ccc2S(=O)(=O)N([C@@H](C)CO)C[C@@H]1C
CO[C@H]1CN(C)C(=O)c2cc(NC(=O)Nc3ccc(Cl)cc3)ccc2OC[C@H](C)N(C(=O)Nc2c(C)noc2C)C[C@H]1C
Cn1cnc(CN)c1
CC(C)CC#Cc1ccc2c(c1)O[C@H](CN(C)S(=O)(=O)c1cccc(F)c1)[C@H](C)CN([C@H](C)CO)S2(=O)=O
CC(C)NC(=O)Nc1ccc2c(c1)C(=O)N([C@H](C)CO)C[C@@H](C)[C@@H](CN(C)S(=O)(=O)c1ccccc1)O2
Cc1ccccc1S(=O)(=O)N1C[C@@H](O)COC[C@H]2O[C@H](CC(=O)NCc3ccc(Cl)c(Cl)c3)CC[C@@H]21
NCC[C@H]1CC[C@H](NC(=O)Cc2ccncc2)[C@H](CO)O1
CN1CCN2CCN(C(=O)c3cccc(N)c3)C[C@@H]2C1=O
O=C(O)C12C3CCC4C5C3C1C5(C(=O)O)C42 (configuration not stated)
C[C@H](CO)N1C[C@H](C)[C@H](CN(C)Cc2ccccn2)Oc2cc(C#CCN(C)C)ccc2S1(=O)=O
C/C=C/c1cnc2c(c1)C(=O)N([C@@H](C)CO)C[C@@H](C)[C@@H](CN(C)S(=O)(=O)c1ccc(OC)cc1)O2
CN(c1ncccc1CNc1nc(Nc2ccc3c(c2)CC(=O)N3)ncc1C(F)(F)F)S(C)(=O)=O
C[C@@H]1CN([C@H](C)CO)S(=O)(=O)c2ccc(C#CC3(O)CCCC3)cc2O[C@@H]1CN(C)C(=O)Nc1ccc(F)cc1
C[C@H]1CN([C@@H](C)CO)C(=O)Cc2cc(NC(=O)Cn3cnnn3)ccc2O[C@@H]1CN(C)Cc1ccccc1
